Data from the supplement of paper PMC11369174, “Proteome-scale characterisation of motif-based interactome rewiring by disease mutations” (Molecular Systems Biology, 2024).
This is one part of the list. The data scatter; read single values as rough.

How the values were obtained:
Experiment in all cases: mutation enrichment score (mutant vs wild-type peptide binding to bait); baits are purified protein domains named by gene / domain / UniProt id / residues; peptides come from disordered regions of human proteins; higher = mutation enhances binding relative to wild type
[1] = biological target: Keap1_KELCH__Q14145_321_609; conditions: number of wild-type / mutant comparisons summed (bounds the score): 18, wild-type window: …
Chain of Keap1_KELCH__Q14145_321_609 (chain, as listed by the source): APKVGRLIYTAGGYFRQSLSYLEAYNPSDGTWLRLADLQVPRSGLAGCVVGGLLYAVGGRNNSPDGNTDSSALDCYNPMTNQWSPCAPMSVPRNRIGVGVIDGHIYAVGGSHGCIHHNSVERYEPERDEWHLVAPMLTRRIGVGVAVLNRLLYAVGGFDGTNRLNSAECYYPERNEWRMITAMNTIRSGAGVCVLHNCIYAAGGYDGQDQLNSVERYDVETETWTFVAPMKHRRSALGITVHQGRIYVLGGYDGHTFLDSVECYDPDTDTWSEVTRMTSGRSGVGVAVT

[2] = biological target: MAP1LC3A_ATG8__Q9H492_2_121; conditions: wild-type window: …
[3] = biological target: MAP1LC3B_ATG8__Q9GZQ8_2_119; conditions: wild-type window: …
[4] = biological target: T1, PEX14_Pex14__O75381_16_84; conditions: number of wild-type / mutant comparisons summed (bounds the score): 6; paper call: no_effect; wild-type window: …
T1 chain: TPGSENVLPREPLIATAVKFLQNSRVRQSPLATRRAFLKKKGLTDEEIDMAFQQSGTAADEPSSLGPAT

[5] = biological target: T2, SIN3A_PAH__Q96ST3_295_383; conditions: number of wild-type / mutant comparisons summed (bounds the score): 5; paper call: no_effect; wild-type window: …
T2 chain: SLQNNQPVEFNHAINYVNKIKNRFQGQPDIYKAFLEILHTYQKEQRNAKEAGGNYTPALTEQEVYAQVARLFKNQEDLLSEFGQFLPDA

SPOP_MATH__O43791_19_176 = biological target: T3, SPOP_MATH__O43791_19_176; conditions: number of wild-type / mutant comparisons summed (bounds the score): 6; paper call: no_effect; wild-type window: …
T3 chain: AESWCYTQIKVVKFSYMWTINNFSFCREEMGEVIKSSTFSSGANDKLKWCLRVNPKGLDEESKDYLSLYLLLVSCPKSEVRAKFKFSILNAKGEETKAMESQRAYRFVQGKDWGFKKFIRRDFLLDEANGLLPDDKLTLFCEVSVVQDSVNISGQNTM

[6] = number of wild-type / mutant comparisons summed (bounds the score): 6, paper call: diminished
[7] = number of wild-type / mutant comparisons summed (bounds the score): 6, paper call: no_effect
[8] = number of wild-type / mutant comparisons summed (bounds the score): 12, paper call: enhanced
[9] = number of wild-type / mutant comparisons summed (bounds the score): 12, paper call: no_effect

Binder: ERQEQLQKEQEKAFFAQLQLGEETGEFLPIQPAQHIQSETS [D77G D77G]
- mutation enrichment score ([1]; paper call: diminished): -7.1

Binder: ERQEQLQKEQEKAFFAQLQLYEETGEFLPIQPAQHIQSETS [D77Y D77Y]
- mutation enrichment score ([1]; paper call: diminished): -7.1

Binder: QEQLQKEQEKAFFAQLQLDEGTGEFLPIQPAQHIQSETSGS [E79G E79G]
- mutation enrichment score ([1]; paper call: diminished): -11

Binder: QEQLQKEQEKAFFAQLQLDEKTGEFLPIQPAQHIQSETSGS [E79K E79K]
- mutation enrichment score ([1]; paper call: diminished): -11

Binder: QEQLQKEQEKAFFAQLQLDEQTGEFLPIQPAQHIQSETSGS [E79Q E79Q]
- mutation enrichment score ([1]; paper call: diminished): -11

Binder: QEQLQKEQEKAFFAQLQLDEVTGEFLPIQPAQHIQSETSGS [E79V E79V]
- mutation enrichment score ([1]; paper call: diminished): -11

Binder: LQKEQEKAFFAQLQLDEETGDFLPIQPAQHIQSETSGSANY [E82D E82D]
- mutation enrichment score ([1]; paper call: diminished): -11

Binder: LQKEQEKAFFAQLQLDEETGQFLPIQPAQHIQSETSGSANY [E82Q E82Q]
- mutation enrichment score ([1]; paper call: diminished): -8.1

Binder: LQKEQEKAFFAQLQLDEETGVFLPIQPAQHIQSETSGSANY [E82V E82V]
- mutation enrichment score ([1]; paper call: diminished): -11

Binder: QLQKEQEKAFFAQLQLDEETSEFLPIQPAQHIQSETSGSAN [G81S G81S]
- mutation enrichment score ([1]; paper call: diminished): -11

Binder: QLQKEQEKAFFAQLQLDEETVEFLPIQPAQHIQSETSGSAN [G81V G81V]
- mutation enrichment score ([1]; paper call: diminished): -11

Binder: EQLQKEQEKAFFAQLQLDEEAGEFLPIQPAQHIQSETSGSA [T80A T80A]
- mutation enrichment score ([1]; paper call: diminished): -11

Binder: EQLQKEQEKAFFAQLQLDEEIGEFLPIQPAQHIQSETSGSA [T80I T80I]
- mutation enrichment score ([1]; paper call: diminished): -11

Binder: EQLQKEQEKAFFAQLQLDEEKGEFLPIQPAQHIQSETSGSA [T80K T80K]
- mutation enrichment score ([1]; paper call: diminished): -11

Binder: QEQLQKEQEKAFFAQLQLDEDTGEFLPIQPAQHIQSETSGS [E79D E79D]
- mutation enrichment score ([1]; paper call: no_effect): -3.4

Binder: EQPNEQHPVSLAPLDESNSYKHLTLSDKEVQMHFAELQEKF [E1391K E1391K]
- mutation enrichment score [2, 6]: -6
- mutation enrichment score ([3]; number of wild-type / mutant comparisons summed (bounds the score): 18, paper call: diminished): -9

Binder: VVKWFKGKWVDLSSKVGQHLHLHDSYDRASKVYLFELHITD [Q208H Q208H]
- mutation enrichment score [2, 6]: -6

Binder: DTLVVLHRAGARLDVRDAWGHLPVDLAEELGHRDVARYLRA [R112H R112H]
- mutation enrichment score ([2]; number of wild-type / mutant comparisons summed (bounds the score): 6, paper call: enhanced): 6

Binder: EVDAQGEEMKEEFETYADALSWGLITLATIGYGDKTPKTWE [W308S W308S]
- mutation enrichment score [2, 7]: 5

Binder: DRVFSSPRGVAAKGKGSPQAPTVRRSPSADQSLEDSPSKVP [Q461P Q461P]
- mutation enrichment score [2, 7]: -2

Binder: GGGQHGLFGPGAGGLHHAHSFAQGHLLFPGLPEQHGPHGSQ [D152F D152F]
- mutation enrichment score [2, 7]: -2

Binder: TMKEELDFQKNIYSEELRETRRRHETRLVEIDNGKQREFES [K219R K219R]
- mutation enrichment score [2, 7]: 2

Binder: NNQFASFIDKVRFLEQQNQVPQTKWELLQQVDTSTRTHNLE [L208P L208P]
- mutation enrichment score [2, 7]: -4

Binder: NNQFASFIDKVRFLEQQNQVRQTKWELLQQVDTSTRTHNLE [L208R L208R]
- mutation enrichment score [2, 7]: -4

Binder: EEMDFRSGSPSDNSGAEEMEMSLAKPKHRVTMNEFEYLKLL [V136M V136M]
- mutation enrichment score [2, 7]: 2

Binder: HRAGARLDVRDAWGRLPVDLTEELGHRDVARYLRAAAGGTR [A118T A118T]
- mutation enrichment score [2, 7]: 4

Binder: EGFLDTLVVLHRAGARLDVRNAWGRLPVDLAEELGHRDVAR [D108N D108N]
- mutation enrichment score [2, 7]: 0

Binder: ARLDVRDAWGRLPVDLAEELSHRDVARYLRAAAGGTRGSNH [G122S G122S]
- mutation enrichment score [2, 7]: 1

Binder: LHRAGARLDVRDAWGRLPVDMAEELGHRDVARYLRAAAGGT [L117M L117M]
- mutation enrichment score [2, 7]: 1

Binder: LVVLHRAGARLDVRDAWGRLLVDLAEELGHRDVARYLRAAA [P114L P114L]
- mutation enrichment score [2, 7]: 1

Binder: DTLVVLHRAGARLDVRDAWGSLPVDLAEELGHRDVARYLRA [R112S R112S]
- mutation enrichment score [2, 7]: 2

Binder: WDGFPLHYSERHGWGYLVPGWRDNLAKLPTGTTLESAGVVC [R627W R627W]
- mutation enrichment score [2, 7]: 4
- mutation enrichment score [3, 7]: 4

Binder: SSHGPSDPTDRAEVEKDSGHDSTSVDSEGFSIPDTGSHCSS [G497D G497D]
- mutation enrichment score [2, 7]: 2

Binder: SFANYLVGTLIPPSEDKASKVFFSYRADIFVQNLVPDWRGP [G316V G316V]
- mutation enrichment score [2, 7]: 3
- mutation enrichment score [4]: 2

Binder: SLLKPPVVKWFKGKWVDLSSQVGQHLQLHDSYDRASKVYLF [K202Q K202Q]
- mutation enrichment score [2, 7]: -2.9
- mutation enrichment score [3, 7]: 4

Binder: GGVPEQEDSVLFRRGTGQSDNSDIWDDTALIKAYDKAVASF [D30N D30N]
- mutation enrichment score [2, 7]: 2
- mutation enrichment score [4]: -1

Binder: CKDPFDKPSQPGELEILSISEDSVTLQWEKPECDGGKEILG [K31371E K31371E]
- mutation enrichment score [2, 7]: -4

Binder: SAQKITKSVKAPTVKPSETRLRAEPTPLPQFPFADTPDTYK [V871L V871L]
- mutation enrichment score [2, 7]: -2

Binder: SLERERCDGGLPGNTHLLPLHATDFEVLSTKFEMQDLCFLG [R3014H R3014H]
- mutation enrichment score [2, 7]: 0.74
- mutation enrichment score [3, 8]: 10

Binder: PRLLQVLKQTRDLETKKQITHHTVNLRSRNGWPGAVAHACN [D460H D460H]
- mutation enrichment score [2, 7]: 2

Binder: VEFTVHVALAFLTAIGDKNRWAVLALEHMFAPVLDGAVSTL [R1114W R1114W]
- mutation enrichment score [2, 8]: 7
- mutation enrichment score [3, 9]: 5

Binder: QDGLYIGVSLASPAEVTSSVLPDSWCALALA [R585L R585L]
- mutation enrichment score [2, 8]: 8
- mutation enrichment score [5]: -3
- mutation enrichment score (SPOP_MATH__O43791_19_176): 4.5

Binder: GHSKILGETSLMRTLCGTPTCLAPEVLVSVGTAGYNRAVDC [Y390C Y390C]
- mutation enrichment score [2, 9]: -3

Binder: GHSKILGETSLMRTLCGTPTFLAPEVLVSVGTAGYNRAVDC [Y390F Y390F]
- mutation enrichment score [2, 9]: -3
